# Laboratory results as given in PubChem BioAssay AID1963576 (National Center for Advancing Translational Sciences (NCATS), 2024).
# Out of some 46,000 compounds screened, about 60 (0.1%) were called active. Roughly 3% stayed inconclusive and do not appear here. The call rests on the fitted dose curve; in most records, active means well fitted inhibition curve with a large enough effect; inconclusive means small, poorly fitted or top-dose-only effect; inactive means no such curve, though single readings can be large or run the other way. The list shows a part of the results.
# Assay: Primary qHTS assay for Inhibitors of ovarian cancer metastasis using an organotypic tumor microenvironment (TME) model. Further: nearly all actives have a fitted effect of over 65% in size.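 On activity change, negative = inhibition: plate controls were DMSO wells for no effect and tomatine positive control wells for full effect.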
# Settings: SKOV3ip1-GFP adhesion/invasion on 3D omental model, fluorescence; series mostly up to 45.8 µM; activity change, negative = inhibition: at the top concentration
# Summary of the method: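 qHTS, 4-pt dose (0.36-46 umol/L); SKOV3ip1-GFP, 1,200 cells/well, no FBS; primary omental fibroblast/mesothelial co-culture 48 h pre-grown; 2 h RT + 16 h 37 C; PBS wash, 4% PFA; GFP count 488/509 nm.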
Structure (SMILES),"activity change, negative = inhibition",outcome
CCCCN(CC)c1nc(-c2ccccc2F)nc2ccccc12,inactive: 5.73%,
CN1C(C(=O)Nc2cccc(O)c2)=CC(c2ccco2)=NS1(=O)=O,inactive: 2.48%,
CCc1nn2c(=O)cc(COC(=O)Cc3ccccc3)nc2s1,,inactive
O=C(O)C1=NC(C(=O)O)CC(C=CN2c3cc(O)c(OC4OC(CO)C(O)C(O)C4O)cc3CC2C(=O)O)=C1 (stereo not drawn),inactive: -15.4%,
O=C(Cc1ccccc1)Nc1sc2c(c1C(=O)Nc1cccc(Cl)c1)CCCCC2,inactive: 16.5%,
CC(C)OCCCn1c(=O)c2ccccc2n2c(-c3ccccc3)nnc12,inactive: 3.16%,
CC(C)(C)C1CCc2c(sc(NC(=O)c3cccc(Cl)c3)c2C(=O)NCc2ccco2)C1 (stereo not drawn),inactive: -8.65%,
COc1ccc(NC(=O)CSC2=Nc3ccccc3C3=NC(CC(=O)NCCc4ccccc4)C(=O)N23)cc1 (stereo not drawn),,inactive
COc1cc(OC)c(NC(=O)CCS(=O)(=O)c2ccc3c(c2)oc(=O)n3C)cc1Cl,inactive: 7.33%,
O=C(NCc1ccco1)c1ccc(Cn2c(SCc3ccccc3)nc3cccnc32)cc1,inactive: -2.86%,
Cc1ccc(S(=O)(=O)c2cn(Cc3ccccc3)c3cc(N4CCCCC4)c(F)cc3c2=O)cc1,,inactive
CC(C)CCOc1ccc(Cn2c(=O)oc3ccccc32)cc1,inactive: -4.45%,
COc1ccc(NCc2cccn2-c2nnc(N3CCCCCC3)s2)cc1,inactive: -26%,
CCc1ccc(S(=O)(=O)NCc2ccc3c(c2)CCN3C(=O)c2ccc(C)cc2)cc1,inactive: -6.86%,
CC1=C(C(=O)Nc2ccccc2C)C(c2cccs2)n2nc(SCc3ccccc3)nc2N1 (stereo not drawn),inactive: 5.36%,
COc1ccc(-c2noc(-c3ccc(N4CCOCC4)c([N+](=O)[O-])c3)n2)cc1,,inactive
CCOC(=O)c1c(C)sc(-c2c(-c3ccccc3)[nH]c3[nH]c(=O)[nH]c(=O)c23)c1O,,inactive
CN(Cc1ccccc1)C(=O)CSc1nnc(-c2cccc(Cl)c2)o1,inactive: -1.39%,
CCc1ccc(CNC(=O)C2COc3ccc(OC)cc3C2)cc1 (stereo not drawn),inactive: 2.42%,
Cc1scc(CN2CCN(c3ccccc3F)CC2)c1C,inactive: 9.54%,
CN(C(=O)CC(=O)Nc1ccc2nc3n(c(=O)c2c1)CCCCC3)c1ccccc1F,inactive: -0.82%,
CCc1ccc(-n2nc(CO)c(C(=O)NCCOC)n2)cc1,inactive: -2.57%,
O=C(Cn1ncc2c(Cl)cccc21)NCc1cccc(Cl)c1,inactive: 6.76%,
CCC(=O)N1c2ccc(S(=O)(=O)CCC(=O)NCc3ccccc3OC)cc2CC1C (stereo not drawn),,inactive

Structure (SMILES),"activity change, negative = inhibition",outcome
COc1ccc(OC)c(CNC(=O)Nc2cn(CC(C)C)c(=O)c3ccccc23)c1,inactive: 11.4%,
CCn1cc(S(=O)(=O)c2cc(C)cc(C)c2)c(=O)c2cc(F)c(N3CCCCC3)cc21,inactive: 8.08%,
CC(C)(C)C1CCc2c(sc(NC(=O)C3c4ccccc4Oc4ccccc43)c2C(N)=O)C1 (stereo not drawn),inactive: -3.26%,
CCOc1ccc(NC(=O)Cn2c(=O)n(Cc3ccc4c(c3)OCO4)c(=O)c3ccc(C(=O)NC4CCCCC4)cc32)cc1,,inactive
Cc1ccc(CNS(=O)(=O)c2ccc(C(=O)N(C)C)s2)cc1,,inactive
Cc1ccc(CN(C(=O)COc2ccccc2Cl)c2ccccn2)o1,,inactive
Cc1cccc(NC(=O)Cn2c(=O)n(Cc3ccc4c(c3)OCO4)c(=O)c3oc4ccccc4c32)c1C,inactive: 2.12%,
CC1CCCCN1Cc1c(O)ccc2c(=O)c(-c3ccccc3Cl)c(C(F)(F)F)oc12 (stereo not drawn),,inactive
COCCSc1nc2c([nH]c3ccccc32)c(=O)n1-c1ccc(OC)c(OC)c1,,inactive
CCCCn1c(CNC(=O)C23CC4CC(CC(C4)C2)C3)nnc1SCC(=O)Nc1ccc(C)cc1,inactive: 6.72%,
O=C(Nc1ccc(S(=O)(=O)N2CCC(c3nc4ccccc4s3)CC2)cc1)c1ccccc1,inactive: -5.87%,
CC(=O)N1CCc2cc(Br)cc(S(=O)(=O)N3CCC(C(=O)Nc4cccc(C)c4C)CC3)c21,inactive: 10.2%,
COC(=O)c1nnn(CC(=O)NC(=O)Nc2ccc(F)cc2)c1C(=O)OC,,inactive
Cc1ccc(CNC(=O)Nc2cc(C(=O)NCc3cccc(F)c3)ccc2N2CCCC2)cc1,inactive: -13.5%,
Cc1ccc(C2CC(=O)Nc3cc4c(cc32)OCCO4)cc1Br (stereo not drawn),inactive: 9.19%,
CCn1c(=O)c2c(nc3n2CCN3c2ccc(OC)cc2)n(C)c1=O,inactive: -6.1%,
Cc1ccc(-c2noc(CCC(=O)N(C)c3ccccc3F)n2)cc1,inactive: 4.61%,
COCCNC(=O)Cn1ccc2cc(S(=O)(=O)N3CCCCCC3)ccc21,inactive: -8.3%,
Fc1ccccc1-c1nc(N2CCN(c3cccc(Cl)c3)CC2)c2ccccc2n1,inactive: -4.69%,
CCOc1ccc(CCNC(=O)c2cc(=O)[nH]c3ccc(S(=O)(=O)N4CCCCC4C)cc23)cc1OCC (stereo not drawn),inactive: -4.16%,
O=C(Cn1nnnc1-c1ccccc1F)Nc1ccc(OC(F)(F)F)cc1,,inactive
CCOC(=O)c1c(C)n(-c2ccc(OC)cc2)c2ccc(OC(=O)COc3ccccc3)cc12,inactive: -3.17%,
COc1ccc(CNC(=O)CCc2c(C)nc3c(c(C)nn3-c3ccccc3)c2C)cc1,inactive: 5.82%,
O=C(CSc1nccn1Cc1ccc(F)cc1)Nc1nc2ccccc2s1,,inactive

Structure (SMILES),"activity change, negative = inhibition",outcome
CCN(Cc1ccccc1)C(=O)C1CCN(S(=O)(=O)c2ccc3c(c2)CCCN3C(C)=O)CC1,inactive: -8.54%,
CC(C)c1nnc(N2C(=O)c3oc4ccccc4c(=O)c3C2c2ccccc2F)s1 (stereo not drawn),inactive: 2.27%,
COc1cc(NC(=O)C2=CC(c3ccc(F)cc3)=NS(=O)(=O)N2C)cc(OC)c1OC,inactive: 17.1%,
CCc1ccc(CNC(=O)CCc2c(C)nn(-c3ccc(N4CCCC4)nn3)c2C)cc1,inactive: 6.16%,
c1ccc([C@H]2CN3CCSC3=N2)cc1,inactive: -11.2%,
COc1cccc(C(=O)Nc2ccccc2C(=O)OCc2cc(=O)n3c4c(sc3n2)CCCC4)c1,,inactive
COc1ccc(CNC(=O)CN(C)S(=O)(=O)c2ccc3nc(C)sc3c2)cc1,,inactive
CCOC(=O)c1ccc(NC(=O)Cn2c(=O)cc(C)c3c(C)nn(-c4ccc(CC)cc4)c32)cc1,,inactive
Cc1coc2c(C)c3oc(=O)c(CCC(=O)NCCc4ccccc4F)c(C)c3cc12,inactive: -9.63%,
CC(C)N(C(=O)CSc1cn(CC(=O)N2CCCCCC2)c2ccccc12)C(C)C,inactive: -3.31%,
COc1ccc(-n2nc(C(=O)N3CCCCC3C)c3c4ccccc4n(C)c3c2=O)cc1Cl (stereo not drawn),inactive: -1.35%,
N#Cc1ccc(-c2cccs2)nc1SCc1ccc(Br)cc1,,inactive
Cc1cc2c(cc1S(=O)(=O)Nc1cccc(C#N)c1)OCC(=O)N2,,inactive
O=C(Cn1ncc2c3ccccc3n(Cc3ccccc3F)c2c1=O)NCc1ccccc1Cl,inactive: -5.34%,
Cc1cccc(CC(=O)N2CC(=O)Nc3ccc(Br)cc3C2c2ccc(F)cc2)c1 (stereo not drawn),inactive: -9.68%,
COc1ccccc1Nc1sc(C(=O)c2ccc(F)cc2)c(N)c1S(=O)(=O)c1ccc(C)cc1,,inactive
COc1ccc(NC(=O)Cn2c(=O)n(CCC(=O)NCC3CCCO3)c(=O)c3cc(OC)c(OC)cc32)cc1 (stereo not drawn),inactive: -17.7%,
CN(Cc1ccccc1)C(=O)c1ccc(CSc2nc3cccnc3n2Cc2ccccc2F)cc1,inactive: -9.08%,
COc1ccc(Br)cc1S(=O)(=O)Nc1cc(-c2cn3ccccc3n2)ccc1C,inactive: -0.171%,
COc1cccc(/C=C/c2nc(C#N)c(N3CCC(C(N)=O)CC3)o2)c1,inactive: -0.75%,
O=C1C[C@@H](c2ccc(O)cc2)Oc2cc(O)cc(O)c21,inactive: -16.7%,
CCOc1cc(C2NC(=O)c3c(sc4c3CCN(C)C4)N2)ccc1OC(=O)c1ccc(Br)cc1 (stereo not drawn),inactive: 18.9%,
CCC(=O)O[C@]1(C(=O)CCl)[C@@H](C)C[C@H]2[C@@H]3CCC4=CC(=O)C=C[C@]4(C)[C@@]3(F)[C@@H](O)C[C@@]21C,inactive: -1.01%,
CCc1ccc(-n2nc(C)c3c(C(=O)N4CCN(c5ccccc5)CC4)cc(C)nc32)cc1,inactive: 1.48%,

Structure (SMILES),"activity change, negative = inhibition",outcome
COc1ccc(-c2noc(-c3ccc(N4CCCC4)c([N+](=O)[O-])c3)n2)cc1OC,,inactive
Cc1cccc(C)c1-n1ncc(C(=O)O)c1C1CCN(C(=O)OC(C)(C)C)CC1,,inactive
CCC(=O)N1CCCc2cc(S(=O)(=O)N3CCC(C(=O)NCc4ccc(F)cc4)CC3)ccc21,inactive: 5.71%,
COc1ccc(C)cc1NC(=O)c1cc2c(=O)n3cccc(C)c3nc2s1,inactive: 4.52%,
CCOc1ccc(NC(=O)Cn2cnc3sc(C)c(S(=O)(=O)N4CCN(c5ccccc5OC)CC4)c3c2=O)cc1,inactive: 0.0812%,
COc1ccc(NC(=O)c2ccco2)cc1NC(=O)C(C)(C)Oc1ccc(Cl)cc1,inactive: 0.634%,
Cc1nn2c(C)c(C(=O)NC(C)c3ccccc3)cnc2c1-c1ccc(F)cc1 (stereo not drawn),inactive: 19.1%,
O=C(Nc1ccc(F)cc1)c1ccc2c(=O)n3c(nc2c1)CCCCC3,inactive: 8.57%,
COc1ccc(OC)c(C2CC(=O)Oc3c2c(=O)n(C)c2ccccc32)c1 (stereo not drawn),inactive: -6.2%,
O=C(NCC(c1cccs1)S(=O)(=O)c1ccccc1)c1ccc(C(F)(F)F)cc1 (stereo not drawn),inactive: -16.3%,
Cc1cccc(N(CC(=O)Nc2ccccc2C(F)(F)F)S(=O)(=O)c2ccccc2)c1C,inactive: -2.83%,
COc1ccc(Cl)cc1NC(=O)c1cn(C2CCCC2)c(=O)c2c1c1ccccc1n2C,,inactive
COc1ccc(CNC(=O)CSc2ncc3c(n2)-c2ccc(Cl)cc2N(Cc2ccccc2)S3(=O)=O)cc1,,inactive
Cc1cc(Cl)ccc1OCC(=O)N(Cc1ccco1)Cc1ccccc1F,inactive: -6.08%,
COc1ccccc1C(=O)NC1(C(F)(F)F)C(=O)Nc2c1c(=O)[nH]c(=O)n2-c1ccc(F)cc1 (stereo not drawn),inactive: 7.57%,
CCOc1ccccc1NC(=O)CCc1c(C)nn(-c2ccc(N3CCCCC3)nn2)c1C,inactive: -14.3%,
Cc1cccc(Cn2c(-c3cccc(Br)c3)nc3ccccc32)c1,inactive: 3.32%,
CN(C)CCNC(=O)Cn1ccc2cc(S(=O)(=O)N3CCCCCC3)ccc21,inactive: -15.7%,
COCCCNC(=O)CSc1nc2c(sc3ccccc32)c(=O)n1CCc1ccc(OC)c(OC)c1,inactive: 32.2%,
CCc1ccccc1NC(=O)Cn1nc(CC)n2c(cc3sccc32)c1=O,inactive: 12.1%,
CCc1ccccc1N1C(=O)CN(S(=O)(=O)CC)CC1(C)C(=O)NC1CCCCC1 (stereo not drawn),inactive: -3.38%,
